Here are results for three molecules from article PMC11015131.

In experiment [1] the target is T1, Mrh5^D261A-Myc (S. pombe) (UniProt O74356).
T1 sequence: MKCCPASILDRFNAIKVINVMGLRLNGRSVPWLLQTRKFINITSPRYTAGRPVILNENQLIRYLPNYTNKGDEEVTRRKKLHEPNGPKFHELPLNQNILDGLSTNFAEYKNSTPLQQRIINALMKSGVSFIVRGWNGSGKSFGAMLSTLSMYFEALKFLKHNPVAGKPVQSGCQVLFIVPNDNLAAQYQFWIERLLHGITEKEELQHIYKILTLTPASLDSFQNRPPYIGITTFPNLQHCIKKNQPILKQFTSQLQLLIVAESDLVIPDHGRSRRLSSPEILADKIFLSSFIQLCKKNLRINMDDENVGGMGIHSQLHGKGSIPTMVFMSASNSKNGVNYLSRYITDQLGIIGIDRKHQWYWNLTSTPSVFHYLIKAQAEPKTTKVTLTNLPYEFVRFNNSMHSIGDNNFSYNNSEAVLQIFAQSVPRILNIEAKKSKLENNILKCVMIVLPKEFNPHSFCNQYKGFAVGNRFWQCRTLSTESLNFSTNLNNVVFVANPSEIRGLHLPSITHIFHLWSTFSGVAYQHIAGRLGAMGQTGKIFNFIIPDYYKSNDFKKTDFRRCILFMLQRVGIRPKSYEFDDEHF
Description: co-IP; anti-Myc co-immunoprecipitation; mitochondrial extracts of Δmrh5 cells with integrated mrh5-Myc, mrh5^D261A-Myc or mrh5^E262A-Myc and Mtf2-HA, Sls1-HA or Ppr4-HA; immunoblot with anti-Myc and anti-HA Abs. (In general: Immunoblotting shows a protein as a band on a membrane.)

Experiment [2] deals with T2, Mrh5^E262A-Myc (S. pombe) (UniProt O74356).
T2 sequence: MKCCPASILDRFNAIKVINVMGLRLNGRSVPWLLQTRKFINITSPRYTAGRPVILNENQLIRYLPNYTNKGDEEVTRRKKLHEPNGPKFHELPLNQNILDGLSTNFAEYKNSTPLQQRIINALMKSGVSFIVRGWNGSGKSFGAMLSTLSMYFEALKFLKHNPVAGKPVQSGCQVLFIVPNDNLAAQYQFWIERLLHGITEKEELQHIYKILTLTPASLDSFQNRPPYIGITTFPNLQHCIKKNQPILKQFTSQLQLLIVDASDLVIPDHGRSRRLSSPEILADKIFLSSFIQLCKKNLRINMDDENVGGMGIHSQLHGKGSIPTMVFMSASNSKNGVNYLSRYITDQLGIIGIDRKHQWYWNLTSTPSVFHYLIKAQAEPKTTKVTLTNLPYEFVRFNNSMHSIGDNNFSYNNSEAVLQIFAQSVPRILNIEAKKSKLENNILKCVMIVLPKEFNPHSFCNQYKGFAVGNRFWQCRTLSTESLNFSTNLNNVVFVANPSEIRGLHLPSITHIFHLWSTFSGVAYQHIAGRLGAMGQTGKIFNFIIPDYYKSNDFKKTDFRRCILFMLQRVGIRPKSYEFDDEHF
Described as above.

Experiment [3] has as its target T3, Mrh5-Myc (endogenously tagged DEAD-box protein Mrh5) (S. pombe) (UniProt O74356).
T3 sequence: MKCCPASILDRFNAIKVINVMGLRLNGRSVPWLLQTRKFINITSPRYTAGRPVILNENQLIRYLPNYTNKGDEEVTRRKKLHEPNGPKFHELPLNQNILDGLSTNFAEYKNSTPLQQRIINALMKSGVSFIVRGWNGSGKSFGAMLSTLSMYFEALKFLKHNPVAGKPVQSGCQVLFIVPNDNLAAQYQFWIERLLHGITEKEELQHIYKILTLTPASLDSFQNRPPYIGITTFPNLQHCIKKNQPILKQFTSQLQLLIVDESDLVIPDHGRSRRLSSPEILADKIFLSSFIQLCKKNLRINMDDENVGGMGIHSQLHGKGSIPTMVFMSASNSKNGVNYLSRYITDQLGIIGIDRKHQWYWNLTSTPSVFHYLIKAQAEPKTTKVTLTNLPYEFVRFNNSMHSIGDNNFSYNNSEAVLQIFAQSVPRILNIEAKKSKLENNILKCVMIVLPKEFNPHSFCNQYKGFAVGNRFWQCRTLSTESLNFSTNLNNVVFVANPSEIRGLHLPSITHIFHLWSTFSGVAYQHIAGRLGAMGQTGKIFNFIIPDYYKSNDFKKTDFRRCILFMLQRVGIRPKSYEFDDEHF
Description: co-IP; anti-Myc beads, Mrh5-Myc as bait; mitochondrial extracts of WT cells with endogenously tagged subunits; immunoblot.

The target of experiment [4] is T4, Sls1-FLAG (endogenously tagged Sls1) (S. pombe) (UniProt Q9UT03).
T4 sequence: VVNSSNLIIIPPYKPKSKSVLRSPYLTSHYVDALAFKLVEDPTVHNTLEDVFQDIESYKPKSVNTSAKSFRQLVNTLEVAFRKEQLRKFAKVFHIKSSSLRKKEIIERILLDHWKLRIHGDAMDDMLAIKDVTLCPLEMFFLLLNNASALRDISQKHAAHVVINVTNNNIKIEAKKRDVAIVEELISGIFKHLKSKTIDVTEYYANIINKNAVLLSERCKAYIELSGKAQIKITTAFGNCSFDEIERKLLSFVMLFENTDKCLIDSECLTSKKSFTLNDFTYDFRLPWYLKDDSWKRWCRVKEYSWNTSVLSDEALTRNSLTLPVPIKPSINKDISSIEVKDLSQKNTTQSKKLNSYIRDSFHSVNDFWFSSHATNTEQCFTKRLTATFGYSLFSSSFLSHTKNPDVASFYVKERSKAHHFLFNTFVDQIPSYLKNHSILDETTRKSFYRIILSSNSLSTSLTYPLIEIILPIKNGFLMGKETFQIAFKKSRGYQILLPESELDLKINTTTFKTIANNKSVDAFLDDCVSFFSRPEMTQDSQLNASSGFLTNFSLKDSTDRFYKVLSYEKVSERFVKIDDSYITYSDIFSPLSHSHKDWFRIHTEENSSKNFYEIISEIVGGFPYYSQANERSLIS
Description: co-IP; anti-FLAG beads, Sls1-FLAG as bait; mitochondrial extracts of WT, Δmrh5, Δppr4 and Δmrh5Δppr4 cells with endogenously tagged subunits; immunoblot with anti-tag Abs.

Experiment [5] addresses T5, Mrh5-Myc (mrh5-Myc integrated at the leu1-32 locus of the Δmrh5 strain) (S. pombe) (UniProt O74356).
T5 sequence: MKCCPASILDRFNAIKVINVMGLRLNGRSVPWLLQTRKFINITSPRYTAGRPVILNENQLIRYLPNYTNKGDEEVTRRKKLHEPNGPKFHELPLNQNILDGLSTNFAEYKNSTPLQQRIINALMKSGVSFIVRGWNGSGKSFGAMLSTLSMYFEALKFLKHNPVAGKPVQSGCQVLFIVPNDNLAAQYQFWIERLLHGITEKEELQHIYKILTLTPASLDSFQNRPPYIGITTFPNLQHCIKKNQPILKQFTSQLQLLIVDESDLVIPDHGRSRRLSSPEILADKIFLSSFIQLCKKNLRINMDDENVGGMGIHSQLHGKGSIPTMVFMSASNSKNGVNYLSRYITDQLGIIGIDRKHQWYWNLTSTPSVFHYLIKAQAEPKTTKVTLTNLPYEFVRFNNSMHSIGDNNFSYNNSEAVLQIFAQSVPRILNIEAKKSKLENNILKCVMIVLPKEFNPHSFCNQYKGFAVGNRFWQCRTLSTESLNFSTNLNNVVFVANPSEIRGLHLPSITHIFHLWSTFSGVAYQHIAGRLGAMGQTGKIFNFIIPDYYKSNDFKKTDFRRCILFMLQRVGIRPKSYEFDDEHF
Description: co-IP; anti-Myc co-immunoprecipitation; mitochondrial extracts of Δmrh5 cells with integrated mrh5-Myc, mrh5^D261A-Myc or mrh5^E262A-Myc and Mtf2-HA, Sls1-HA or Ppr4-HA; immunoblot with anti-Myc and anti-HA Abs.

No constants are given. Whether binding was seen depends on the method and setting. In cells and extracts the contact can be indirect. Some entries that bind do so weakly or less than the wild type. Sequences can lack the tags named with a protein.

B1: Ppr4-HA (endogenously tagged Ppr4) (protein, UniProt O14275 17-931)
chain: NTPLLWFPQPLKYWPAFQQSHTFNSMSVFKNDNAIANQTTVNESDVKRNVEKINDIYECSNNTKSPCFPNSDSRIPLVNWKTSTNPTLQVRAYMLDLLLPFFTLDLLPFLNKVCECCNHMLLDNPKIKQDLPFAFCYLFSSYFSYKSSRQYTCSSEEISKVFRHLNRLGGSEYVLHLFAQIPKALCKELTDVRTLNHPLRSIFTFCFKNISNPPNLLKLLTKLYPRSDRANEVLYTQYLGFLTKRGDYQIAIYMFDEMYRTHHWSSFTACRLMIESLVRQNKFEEAISLYKKIIAKRPKIARDKKILNLLLYISTVSNRSPDAFKLALQSISNANQIPSFDVFSRLMSALVKYNMTEMILPLVKQYDHKFRNLYSPNIFLSIVQALVFCGDMVNIQRWYNMSRVNSELSRIKHLLNCFLNSSTVSLDVSMVLELLRDLKKKKIKVDERTLVICITIFSRRKDLFAMEKIHQYFSDQGIKTSNQAYAALLDAYIEAEDTEKIELYLGKIRRLGITEDVSINRMLMRLALDRLDWDLLEQCTKVAERKDPEGQDYLSTITMLYHVRQHELNLALRIFSGIQKPNVVHYSIAATVLGNLNQLDQLLLLEKRMESEGKAPTALSLVAFVSSYCKQGAEGLDEAKRYMSKNFQPDKRALLFNPRTANDMTYPPSLFSSLIKEYTSLGDIKEAKQVLSTYLEYFSKNITSKPDIPFAIASMRLYCSLHDTVLSRQFWDLILQVAQQNFITTDIAAVVDDKNIPSPSGVIPAYKSALNVAAETYFSFLASVNSFQELDQEWSRLEKLGFEYDDSLQNKRIIWLLYDDRLDAAIKRVYNIFLSSKRIEELIPDASSQNSIISFFLSPDSPLYFSTLKALRDKLDMAVEDDFVRISQGILVPTVKYLQTIRRDNEILFNLLAKV
Turning to B1, the binding entry in experiment [1] and in experiment [2] was “no binding” throughout.

B2: Sls1-HA (endogenously tagged Sls1) (protein, UniProt Q9UT03 42-677)
chain: VVNSSNLIIIPPYKPKSKSVLRSPYLTSHYVDALAFKLVEDPTVHNTLEDVFQDIESYKPKSVNTSAKSFRQLVNTLEVAFRKEQLRKFAKVFHIKSSSLRKKEIIERILLDHWKLRIHGDAMDDMLAIKDVTLCPLEMFFLLLNNASALRDISQKHAAHVVINVTNNNIKIEAKKRDVAIVEELISGIFKHLKSKTIDVTEYYANIINKNAVLLSERCKAYIELSGKAQIKITTAFGNCSFDEIERKLLSFVMLFENTDKCLIDSECLTSKKSFTLNDFTYDFRLPWYLKDDSWKRWCRVKEYSWNTSVLSDEALTRNSLTLPVPIKPSINKDISSIEVKDLSQKNTTQSKKLNSYIRDSFHSVNDFWFSSHATNTEQCFTKRLTATFGYSLFSSSFLSHTKNPDVASFYVKERSKAHHFLFNTFVDQIPSYLKNHSILDETTRKSFYRIILSSNSLSTSLTYPLIEIILPIKNGFLMGKETFQIAFKKSRGYQILLPESELDLKINTTTFKTIANNKSVDAFLDDCVSFFSRPEMTQDSQLNASSGFLTNFSLKDSTDRFYKVLSYEKVSERFVKIDDSYITYSDIFSPLSHSHKDWFRIHTEENSSKNFYEIISEIVGGFPYYSQANERSLIS
Turning to B2, the binding entry in experiment [1] and in experiment [2] was “no binding” in each case.

B3: Mtf2-HA (endogenously tagged Mtf2) (protein, UniProt O14204 1-314)
chain: MRVCRTLKISIKSFPSSLSLLSLYKRRLHKSTSHSSTATSSHYSKNNLPSDSPDLLFDYFIDGHKIHVNPNAVEPLHLRRNADVVGFSLPHGVKQSFENYIQKYPLSDQVENSSNIYDPSSPPDSPRKQQTHLGTIPPEHPDVFFHNLKKKLDSLHTHSSPLTVYRNHLLTCETDSALAQLFKSEIYQQLSDFRRDFPLSHALRDTMLIARLNFLNPMLALSFFQAVKKHSPNAYVRGCSAPVYNQAILSVWQGCKDPNFVLHLLGEMRENVVMRDSETREAINIVYKDVNEWPKQLLFSQNRILEKLKIFLLP
B3: the binding entry in experiment [3] was “binds”; in experiment [4], “binds”; in experiment [5], “binds”; in experiment [1], “no binding”; in experiment [2], “no binding”.
